The values below come from PMC12136788.

T1: UNK ZnF1-3 (human, UniProt Q9C0B0 31-174)
T1 sequence: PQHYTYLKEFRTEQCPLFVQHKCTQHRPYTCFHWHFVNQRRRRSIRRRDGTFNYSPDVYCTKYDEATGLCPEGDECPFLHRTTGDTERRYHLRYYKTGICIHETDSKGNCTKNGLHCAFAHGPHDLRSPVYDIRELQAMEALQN

B1: 58329970_58341467_288_3pUTR_ENSMUSG00000027810_ENSMUST00000029387|mouse|control|control (ssRNA)
RNA: GGGAGUUCUACAGUCCGACGAUCCUUCCAGAUUCUCUGGGAAGCACCGUGCUUUCUGUGAAGUGUGGUGGUCCAUUCACCAUGUACAGUCCCUCUGAUCCUCUGACUGUCAACAGCGGUGUGGACGGCGCCAUCUUGUCCCGGCAACAGAGGAUUGAGCAUCA
B2: chr9:66219764:66219765:+_ENSMUSG00000038664_ENSMUST00000042824|mus_hu|FALSE|FALSE (ssRNA)
RNA: GGGAGUUCUACAGUCCGACGAUCUUCAAAGUCUGGCAACUGUGGUCCUUUGAGGCAUAAAACUUGUUGGGGCAAAGGUACUACUUCCUUAUUGCUAACCAGUUUAGAAUACAGAACAGCAACUCCCUCUCUUGUAGCAAUAGACAACAGAGGAUUGAGCAUCA
B3: chr1:25278652:25278653:-_ENSMUSG00000033569_ENSMUST00000126626|mus_hu|FALSE|FALSE (ssRNA)
RNA: GGGAGUUCUACAGUCCGACGAUCGCAGAUACUCUUAUUAUGUGUCUGAGUCUGUCCAACCAGUAUGAGGAUAUUGGAUGAGAUGAUAGACAGGCAGAAGUUAAUUAGUAUUAUGGAUCUCUCAGAGCGUAUGUACCUCCAUAACAACAGAGGAUUGAGCAUCA
B4: 23377172_23382573_874_CDS_ENSMUSG00000026158_ENSMUST00000027343|mouse|control|control (ssRNA)
RNA: GGGAGUUCUACAGUCCGACGAUCCUCCACUAGAGCCUCGUGAAGAAUGAAUUUUACCAGAGGAGAUUUAAAACUCUCGUAUCCAAGCUCGCCAAGGCUUUUAAGAAUUCGCGUAAUUCUUAAAUAGUUGUGCUGAGACUCAUUCAACAGAGGAUUGAGCAUCA
B5: 77635040_77672404_243_CDS_ENSG00000142892_ENST00000370812|human|control|control (ssRNA)
RNA: GGGAGUUCUACAGUCCGACGAUCAUUACAGGCCAUAUCAUCUGCAAGCAUUAGGACAAUGUGACUGUCAGGAAUACCUAGCCUCUUGACACUUCUAUAAACAGAAAGGGUAUUUGCAACAUGUCGAUAAUUAAACCAGAAUCGCAACAGAGGAUUGAGCAUCA
B6: chr9:100883651:100883652:-_ENSG00000106789_ENST00000375077|hu_hu|FALSE|FALSE (ssRNA)
RNA: GGGAGUUCUACAGUCCGACGAUCGGGUAUGGAAUAAGGAGAUGAGAGCAUGCUCUGCCAACUGGCUGGGACCUGAAUGUGCUAGGCAAGUUCCACUACAUCAGCUCAAGAACAUAAACAAAAAUGUAAUUUAAAAAACAGAUGCAACAGAGGAUUGAGCAUCA
B7: 32062031_32064210_2217_CDS_ENSMUSG00000039262_ENSMUST00000036691|mouse|control|control (ssRNA)
RNA: GGGAGUUCUACAGUCCGACGAUCAGAAGGUGGGGGGUAGACCGGCUGCCAGUGCUGCAUCUUGUACAGCUGCUCCUGCUGCUGCUGCUGCUGCUGUUGCUGCUGUUGCUGCUGCUGCUGGCGCUGGAAACGGGGAGGAAGGGACAACAGAGGAUUGAGCAUCA
B8: 45960315_45960516_619_CDS_ENSMUSG00000021832_ENSMUST00000022380|mouse|control|control (ssRNA)
RNA: GGGAGUUCUACAGUCCGACGAUCAUUAAACAUUUCUCUAAUCAAACGAGCACUUUCACCAAUGUACUUGUCUACAAUAGAACUAGAUACAACCUUUAGGAAGUUGCAGUCCAGCUGGCUGGCAACAGCUCGUGCCAAGAGUGUCAACAGAGGAUUGAGCAUCA
B9: chr22:32879901:32879902:+_ENSG00000100225_ENST00000397426|hu_mus|hu_hu_hu_mus_False|18_18 (ssRNA)
RNA: GGGAGUUCUACAGUCCGACGAUCCUCUUCCAUACUCAUGGCAUCCUGAAUUGACUCAGCUUCAACAUUUUGACUAGGCCCUUCCAUACUGUCAUCAGUCCAGGCAUCAAAUGGGGUUGCCUGUCCUUGGGAUGAAUCAGUCCCCAACAGAGGAUUGAGCAUCA
B10: chr3:45751083:45751084:+_ENSG00000211456_ENST00000389061|hu_mus|FALSE|FALSE (ssRNA)
RNA: GGGAGUUCUACAGUCCGACGAUCCCAUACAAACCGCUGAUCUGCCCUUUCUAAGAGACUCAUUUCUUGGAAUUCUGGACUCGUGUUAGAUAGUCGCUGCAAAGUAUGAGUCAAGUCAUAUGUUGUUGAAAAGUAAAAUCCAUCCAACAGAGGAUUGAGCAUCA
B11: chr3:9412954:9412955:+_ENSG00000134077_ENST00000452837|hu_mus|hu_hu_hu_mus_False|8_8 (ssRNA)
RNA: GGGAGUUCUACAGUCCGACGAUCGGUUGAUAUCUCUUCUUUGAUGGCUGGAUUUUCAUAAUAGUCCAAGAUAUGUGAAUCUGAAGUGCUGCUGGCAUGCUUUUUCUUACCAUCUUUCUCAUCUGCUUUGACUUCUUGUCCACACAACAGAGGAUUGAGCAUCA
B12: 88725732_88725852_108_5pUTR_ENSMUSG00000018428_ENSMUST00000018572|mouse|control|control (ssRNA)
RNA: GGGAGUUCUACAGUCCGACGAUCGCACUCAAUCCUCCCGCCACCGCCCCCUGGCCCCCCACCUAGUCCAGCGGCCCUGCCCCGCAGCGCUGCACGGCGCUUCGGCCGCUCCCCCACGUGCUAGCCCAGGCCGGGCGAACACAGCAACAGAGGAUUGAGCAUCA
B13: chr7:66532262:66532263:+_ENSMUSG00000025326_ENSMUST00000107537|mus_hu|FALSE|FALSE (ssRNA)
RNA: GGGAGUUCUACAGUCCGACGAUCUCCUUGAACUAAGCUGUAGAGAACAGUGAUUCUUCGUUCACUGUACAUGCGAAUUCUAUUGUCAUAAUAUAAUCCCAAAUUCUUUGUGACAGCAUUCAAUAUAAAGGGACAUGUCAUAAACAACAGAGGAUUGAGCAUCA
B14: chr10:57206289:57206290:+_ENSMUSG00000019878_ENSMUST00000079833|mus_hu|FALSE|FALSE (ssRNA)
RNA: GGGAGUUCUACAGUCCGACGAUCGCCGGCACGUUCGAACUCUGCUUCAUUGUUAACGCGGCGCAGGGAUUCCAAAUUCUACACCCGAACGCGGUGGUAGCGGCGGCGGCAGCUACGGCAGCAGCUCCCCGAGAACGCCCACAACAACAGAGGAUUGAGCAUCA

The other results are listed elsewhere or left out.

The target of the experiment is T1, UNK ZnF1-3. Nature of the experiment: nsRBNS (natural sequence RNA bind-n-seq); RBNS binding buffer (assumed for nsRBNS): 25 mM Tris pH 7.5, 150 mM KCl, 3 mM MgCl2, 0.01% Triton X-100, 500 ug/ml BSA, 20 U/ml SUPERase-In, 4 C; UNK is unkempt and MSI1 is Musashi-1; names of the RNAs are library labels; protein concentration not given here; high values mean tight binding.
B1 yielded a binding signal of 0.521 enrichment R. For B2, the binding signal is 0.992 enrichment R. Next, B3: 1.09 enrichment R; B4: 0.967 enrichment R. B5 gave a binding signal of 1.32 enrichment R. Next, B6: 2.85 enrichment R.

The molecule B7 returned a binding signal of 0.769 enrichment R. To B8 belongs 0.427 enrichment R; to B9, 0.936 enrichment R. Next, B10: 1.03 enrichment R.

Consider B11, for which the binding signal amounted to 0.278 enrichment R. Next, B12: 1.02 enrichment R; B13: 0.489 enrichment R; B14: 0.88 enrichment R.
